Several values for one entry are separate records, joined by “and”; a condition that tells them apart may be missing. Equal entries are not always repeated.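 How tested: cells in 96-well plates exposed to compound for 48 hours at five concentrations. At the GI50, growth is halved. TGI marks complete inhibition of growth.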 Peptide text beside a SMILES is read from it. * marks the point of attachment. Boc = CC(C)(C)OC(=O)*; OBn = c1ccc(CO*)cc1
Test system: NCI-H322M lung
Test: DTP human tumour cell line panel, 48 h

Compound | TGI | GI50
Cc1cc(=O)oc2cc(OCc3nc4ccccc4c(=O)n3-c3ccccc3)ccc12 | > 100 µM | 
COCOc1cc(OCOC)cc(C(=O)Oc2ccccc2)c1 | > 100 µM | 
O=C(/C=C/NC(=O)OCc1ccccc1)OCc1ccccc1 | > 100 µM | 
CNCC(=O)Nc1ccc2c(c1)C(=O)c1ccc(NC(=O)CNC)cc1C2=O | 11.9 µM | 
Cc1c2c(cc3c1[nH]c1ccccc13)C(c1ccc(Cl)cc1)=NCC2 | 8.74 µM | 
COc1ccc(/C(=N/O)C(c2ccc(OC)cc2)C2C(=O)Oc3ccccc32)cc1 (stereo not drawn) | > 100 µM | 
Nc1nonc1C(=Nc1ccc(F)c(Cl)c1)NO | > 100 µM | > 100 µM
c1ccc2cc(C[n+]3ccn(CCCCCCCCCCCCn4cc[n+](Cc5ccc6ccccc6c5)c4)c3)ccc2c1 | 3.9 µM | 0.858 µM
COc1cc2c3c(n(CCCNCCNCCN)c(=O)c2cc1OC)-c1cc2c(cc1C3=O)OCO2 | 14.2 µM | 2.56 µM
COc1ccc2c(CCNC(C)=O)c(C(C)=O)[nH]c2c1 | > 100 µM | 
CCCCCCCCCCS(=O)CC(CO)NC(=O)/C=C/c1c(C)[nH]c(=O)[nH]c1=O (stereo not drawn) | 5.45 µM | 
CCOC(=O)/C=C(/C(=O)OCC)n1cc(C)c(=O)n(/C(=C/C(=O)OCC)C(=O)OCC)c1=O | 29.4 µM | 
CC(C)NCCCC(C)Nc1ccnc2ccc3nn(C)nc3c12 (stereo not drawn) | > 100 µM | 
Cc1cc(Nc2ccc(S(=O)(=O)O)cc2)c2ccccc2n1 | > 100 µM | 
O=C(NN1C(=O)C(Cl)C1c1ccc(O)cc1)c1ccccc1O (stereo not drawn) | 42.4 µM | 
CC1CCC2(OCCO2)[C@]2(C)CC(O)C(=O)C=C12 (stereo partly drawn) | > 100 µM | 
O=C1C(Cl)C(c2cc3cc(Br)ccc3nc2Cl)N1c1ccc(F)c(Cl)c1 (stereo not drawn) | 24.9 µM | 
CCOC(=O)C12CCCC1(O)N(NC(N)=O)C(C)=C2C(=O)OC (stereo not drawn) | > 100 µM | 
C#CCn1cnc2cnc(Nc3cccc(NC(=O)CCl)c3)nc21 | > 62.5 µM | 30 µM
COc1cc2c(cc1OCCCCCn1c(-c3ccc(OCc4ccccc4)cc3)nc3cc(N4CCOCC4)ccc31)N=C[C@@H]1CCCN1C2=O | 18 µM | 3.03 µM
NC(=S)N/N=C1\CCCCc2ccccc21 | > 10 µM | 
Cc1ccc(O)c(C(c2ccc(C(c3cc(C)ccc3O)c3cc(C)ccc3O)cc2)c2cc(C)ccc2O)c1 | 3.03 µM | 
CCn1cc(C(=O)O)c(=O)c2cc(F)c(N3CCN(CN4C(=O)/C(=N\c5ncc(Cc6cc(OC)c(OC)c(OC)c6)c(N)n5)c5cc(Cl)ccc54)CC3)cc21 | > 100 µM | 
CCOC(=O)C1=C(Cl)c2cccnc2C1=O | > 100 µM | 

Compound | TGI | GI50
C[C@@]1(Br)C[C@@](C)(Cl)[C@@H](Br)CC1/C=C/Cl (stereo partly drawn) | 42.7 µM | 
O=[N+]([O-])c1cc(Cl)c(Cl)cc1[N+](=O)[O-] | 31.3 µM | 
CCNC(=O)N(CC)CN(CC)C(=O)NCC | > 100 µM | 
Cc1ccc(C(=O)O)cc1NC(=O)c1cc(/C=C/c2ccccc2)[nH]c(=S)n1 | > 100 µM | 
COc1cc(/C=C/c2cc(/C=C/c3ccc(O)c(OC)c3)n(-c3c(Cl)cccc3Cl)c(=O)n2)ccc1O | 16.4 µM | 4.14 µM
COc1ccc(-c2cc(-c3ccccc3)nc(SCCCC(=O)NO)n2)cc1OC | 11.7 µM | 2.12 µM
CCO/C=N/C1=C(C#N)C(c2ccc(OC)cc2)c2sc3c(F)cccc3c2O1 (stereo not drawn) | > 100 µM | 6.27 µM
CC1=C2O[C@]3(O)C=C2C(=C(O)C1=O)[C@@H]1O[C@H](CC[C@H](C)/C=C(\C)C[C@@H](C)C[C@@H]3C)[C@H](C)[C@H](O)[C@H]1C | 2.47 µM and 2.98 µM | 1.54 µM
O=C(CC1(O)C(=O)Nc2c(Cl)ccc(Cl)c21)c1ccco1 (stereo not drawn) | > 100 µM | 
COC(=O)/C=C/C1C2C3(CCC(C)C12C)OCCS3 (stereo not drawn) | > 100 µM | 
N#Cc1ccccc1NC(=O)/C(=N\Nc1ccc([N+](=O)[O-])cc1)C1C(=O)NC(=O)NC1=O | > 100 µM | 
C=Cc1nc2nnc(CCCCCCCCc3nnc4nc(C=C)[nH]n34)n2[nH]1 | > 100 µM | 
CCOC(=O)c1csc(NC(=O)CN(C)C)n1 | > 100 µM | 
O=[N+]([O-])c1ccc(C2=Nn3c(nnc3-c3ccccc3)SC2)o1 | > 100 µM | 
Clc1cc(Cl)cc(-c2ccc(-c3ccc(/C=N/NC4=NCCN4)cc3)s2)c1 | 3.12 µM | 1.69 µM
CNC(=O)NCC1OC(n2cnc3c(NC(=O)Nc4ccccc4)ncnc32)C(O[Si](C)(C)C(C)(C)C)C1CC(=O)N(C)OC (stereo not drawn) | > 100 µM | > 100 µM
CC(=O)Oc1c(-c2ccccc2)oc2ccccc12 | 11.1 µM | 
Cc1ccc(S(=O)(=O)NC(=O)NC(C(=O)O)C(C)C)cc1 (stereo not drawn) | > 100 µM | 
O=C1C=CC(=O)c2cc3cc(CO)ccc3cc21 | 53.4 µM | 26.7 µM
O=c1c(-c2ccccc2)c2n(c3ccccc13)CCN2 | > 100 µM | 
COc1ccc(C(=O)NCCC2CN(S(=O)(=O)C(F)(F)F)c3ccccc32)c(OC)c1 (stereo not drawn) | > 100 µM | 
O=C1OC(O)c2cc3c(cc21)OCO3 (stereo not drawn) | > 100 µM | 
COc1ccc(CC(C)=C(c2ccc(OCCN3CCCCCC3)cc2)c2ccc(OCCN3CCCCCC3)cc2)cc1 | 0.981 µM | 0.364 µM
CC(=O)O[C@H]1C(=O)[C@@]2(C)[C@H]([C@H](OC(=O)c3ccccc3)[C@]3(O)C[C@H](OC(=O)[C@H](O)[C@@H](NC(=O)c4ccccc4)c4ccccc4C)C(C)=C1C3(C)C)[C@]1(OC(C)=O)CO[C@@H]1C[C@@H]2O | 24.6 µM | 

Compound | TGI | GI50
CC1(C)C(N(O)C(=O)Nc2ccc(Cl)cc2)N(c2ccc(Cl)cc2)C(=O)N1CC(=O)N/N=C/C=C/c1ccc([N+](=O)[O-])o1 (stereo not drawn) | > 61.7 µM | 4.95 µM
OC1c2ccccc2CCC1C(O)(C(F)(F)F)C(F)(F)F (stereo not drawn) | > 100 µM | 
C1CSC(Sc2nc(SC3=NCCS3)nc(SC3=NCCS3)n2)=N1 | > 100 µM | 
CC(C)CC(NC(=O)OC(C)(C)C)C(=O)NC(CC(=O)OCc1ccccc1)C(N)=O (stereo not drawn) (Boc-Leu-Asp(OBn)-NH2; configuration not given here) | > 100 µM | 
Cc1ccc(O)c(-c2cc(-c3cccc(Br)c3)on2)c1 | 63.4 µM | 
N[C@]1(C(=O)O)C[C@@H]2C(Br)=NO[C@@H]2C1 | > 100 µM | 
CN(C)C1C(=O)C(C(=O)NCN2CCCC2)=C(O)C2(O)C(=O)C3=C(O)c4c(O)cccc4C(C)(O)C3CC12 (stereo not drawn) | > 100 µM | 
Cc1cc2c(O)c(c1)COCc1cc(C)cc(c1O)COCc1cc(C)cc(c1O)COC2 | > 100 µM | 
CC1=NC(C)(C)[N+]([O-])=C1 | > 10 µM | 
CCC(CC)c1nc(Nc2cccc(OC)c2)c2ccccc2n1 | 12.2 µM | 6 µM
CC1CCC(=O)NCCCCC(=O)N1 (stereo not drawn) | > 100 µM | 
O=C(CCc1n[nH]c(=S)o1)Nc1ccc(Cl)cc1Cl | > 100 µM | 
O=c1c2cc(F)ccc2sc2c(Nc3ccncc3)nc3ccccc3c12 | 7.53 µM | 2.23 µM
CC(N)Cc1ccc(F)cc1 (stereo not drawn) | > 100 µM | 
C/C=C(\C)[C@@H](O)C(=O)O[C@@H]1CC(C(C)(C)O)[C@](C)(CCC(=O)OC)[C@H]2[C@H](OC(=O)[C@H](O)[C@H](C)CC)C[C@]3(C)C(=CC[C@H]3[C@H]3CO[C@H](C=C(C)C)C3)[C@]12C (stereo partly drawn) | > 100 µM | 
CC(C)OC(=O)[C@@H]1OC(C)(C)O[C@H]1C(=O)OC(C)C | > 100 µM | 
COc1cc2ccnc(C=O)c2cc1OC | > 100 µM | > 100 µM
O/N=C1/C(=C/c2ccc(Cl)c(Cl)c2)CCCC1C(NO)c1ccc(Cl)c(Cl)c1 (stereo not drawn) | 28.2 µM | 
c1cc2c(s1)SSSSS2 | 42.3 µM | 19.7 µM
Cn1ncc(NC(=O)c2nc(-c3c(F)cccc3F)sc2N)c1N1CC[C@@H](N)[C@H](F)CC1 | 55.3 µM | 4 µM
O=c1c(Cc2c(O)ccc3ccccc23)nnc2sc(-c3nn4c(=O)c(Cc5c(O)ccc6ccccc56)nnc4s3)nn12 | > 100 µM | 
O=C1C(Cl)=C(Cl)C(=O)C2=C1C1c3ccccc3C2c2ccccc21 | > 100 µM | 
CCOC(=O)C1C(=O)C=C(c2cc(C)ccc2O)CC1c1cccc(Cl)c1 (stereo not drawn) | > 100 µM | 
CCn1c(=O)c(Oc2ccc(F)cc2F)cc2cnc(NC3CCOCC3)nc21 | > 25 µM | > 25 µM

Compound | TGI | GI50
CC(C)(C)OC(=O)NCCc1ccc(N)cc1 | > 100 µM | 
C[C@@]1(C(=O)Nc2ccc(F)nc2)CCCN1c1nc(Nc2cc(C3CC3)[nH]n2)c2cccn2n1 | > 5.33 µM and 39.5 µM | 0.98 µM and 5 µM
O=C(c1ccc(Cl)cc1)c1no[n+]([O-])c1C(=O)c1ccc(Cl)cc1 | > 100 µM | 37.2 µM
CCCCCCCCCCCCCC(=O)OC1C(O)C(CO)OC(OC)C1NC(=O)N(CCCl)N=O (stereo not drawn) | > 100 µM | 
CN(C)CCNc1ccc2nnn3c4ccccc4c(=O)c1c23 | 10.6 µM | 
COC1OC(COC(C)=O)C(OC(C)=O)C(OC(C)=O)C1NC(=O)N(CCCl)N=O (stereo not drawn) | > 100 µM | 
Cn1c(-c2ccccc2)cc(-c2ccsc2)c1-c1ccsc1 | > 100 µM | 
O=C(N[C@@H](c1ccccc1)[C@@H](O)C(=O)OCc1ccc2c(c1)OCO2)c1ccccc1 | > 100 µM | 
CN(CCCCCl)P(=O)(OCC1=CC(=O)c2ccccc2C1=O)OC[C@H]1O[C@@H](n2cc(F)c(=O)[nH]c2=O)C[C@@H]1O (stereo partly drawn) | 19.8 µM | 
O=C1C(Cl)=C(N2C(=O)CCC2=O)C(=O)c2ccccc21 | > 100 µM | 
CNc1ccccc1-c1nc2ccccc2c(=O)o1 | > 100 µM | 
CCOC(=O)C(C)c1c(C(=O)c2ccc(C)nc2)c2ccccc2n1C (stereo not drawn) | > 100 µM | 
NCCCCCCCCCCn1c2c(c3ccccc3c1=O)C(=O)c1ccccc1-2 | 16.1 µM | 4.18 µM
CCCCCCCCOCC(CO)OCCCCCCCC (stereo not drawn) | 35 µM | 
CC(=O)/C=C/c1ccc(OCc2ccc(C(C)(C)C)cc2)cc1 | > 1000 µM | > 1000 µM
COc1cc(-c2ccc(-c3ccc(C(=N)N)cc3)s2)cc(OC)c1OC | 12.8 µM | 3.13 µM
O=C1Nc2ccccc2/C1=C\c1c(Cl)nc2sccn12 | 18.5 µM | 7.47 µM
O=C1C(Cl)=C(N2CCN(CCOCCO)CC2)C(=O)c2ncccc21 | > 10 µM | 
Nc1nc(-c2ccco2)cc(-c2ccco2)n1 | > 100 µM | 
CCOC(=O)C(/C=N\C(=S)Nc1c(CC)cccc1C(C)(C)C)=C(/O)c1ccccc1 | > 100 µM | 
COc1cc(OC)c2c(c1)C(=O)C(CC1(C)OCCCO1)=CC2=O | 29.8 µM | 
CCCCCC(=O)N[C@H]1CCc2cc(O)c(O)c(O)c2-c2ccc(SC)c(=O)cc21 | > 100 µM | 
NC1CCCCC1N.Nc1c(N=Nc2ccc(-c3ccc(N=Nc4cc(S(=O)(=O)[O-])c5ccccc5c4N)cc3)cc2)cc(S(=O)(=O)[O-])c2ccccc12.[OH3+].[OH3+].[Pt+4] | > 100 µM | > 100 µM
Oc1ccc(O)c(Cc2ccccc2)c1 | > 100 µM | 
